According to the supplement of paper PMC9446081:
The campaign covered roughly 39,000 compounds. About 220 (0.56%) showed activity. Some of the results follow.
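Further: static incubation at 37 °C against the wild-type strain, values averaged over two biological replicates.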

Each compound was assayed on Escherichia coli K-12 BW25113 (assay: relative growth (OD600 normalised to plate interquartile mean) (fraction); higher = less growth inhibition, active = 0.2 or less). Details: 50 µM; LB; incubation time: overnight (16-24 h).
In the case of `O=C(/C=C/c1cc2c(cc1Br)OCCO2)c1c(-c2ccccc2)c2cc(Cl)ccc2[nH]c1=O`, the relative growth is reported as inactive: 1.03.
For `C[C@@H]1CCCCO[C@@H](CN(C)C(=O)Cc2ccccc2)[C@@H](C)CN([C@@H](C)CO)C(=O)c2cc(NC(=O)Nc3ccc(C(F)(F)F)cc3)ccc2O1`, the relative growth was inactive: 1.01.
With `O=C1OCCC=C[C@H]2O[C@@]34C=CCN(c5ccc6ccccc6c5)C(=O)[C@H]3N(CCCCCO)C(=O)[C@@H]4[C@@H]12` the relative growth was inactive: 0.997.
`C[C@@H]1CN([C@H](C)CO)C(=O)c2cc(NC(=O)Nc3ccc(C(F)(F)F)cc3)ccc2O[C@@H](C)CCCCO[C@H]1CN(C)C(=O)Nc1ccc(C(F)(F)F)cc1` was tested, and the relative growth was inactive: 1.02.
For `NCCSc1cc(C(F)(F)F)nc2ccccc12`, the relative growth was inactive: 0.938.
In the case of `C[C@@H]1CN([C@H](C)CO)C(=O)c2cc(NS(=O)(=O)c3ccc(F)cc3)ccc2O[C@@H]1CN(C)Cc1ccc(-c2ccccc2)cc1`, the relative growth is reported as inactive: 1.01.
For `CC(C)NC(=O)Nc1ccc2c(c1)C(=O)N([C@@H](C)CO)C[C@H](C)[C@@H](CN(C)Cc1ccccc1)OCCCC[C@@H](C)O2`, the relative growth was inactive: 1.02.
`Cc1ccc(S(=O)(=O)N(C)C[C@H]2Oc3ccc(NS(C)(=O)=O)cc3C(=O)N([C@@H](C)CO)C[C@H]2C)cc1` was tested, and the relative growth was inactive: 0.998.
`C[C@H](CO)N1C[C@H](C)[C@H](CN(C)Cc2ccc(C(F)(F)F)cc2)Oc2c(NC(=O)CCCCCC(=O)Nc3ccccc3N)cccc2C1=O` was tested, and the relative growth was inactive: 0.955.
`COCC#Cc1ccc([C@@H]2[C@@H](CO)N3C(=O)CN(C(=O)c4ccncc4)C[C@@H]23)cc1` was tested, and the relative growth was inactive: 1.
`Cc1cc(C(=O)Nc2cccc3c2O[C@@H](CN(C)Cc2ccc(C(=O)O)cc2)[C@@H](C)CN([C@@H](C)CO)C3=O)n(C)n1` was tested, and the relative growth was inactive: 1.04.
With `Cc1ccc(S(=O)(=O)N(C)C[C@@H]2OCCCC[C@H](C)Oc3ccc(NC(=O)Nc4ccc(F)cc4)cc3C(=O)N([C@@H](C)CO)C[C@@H]2C)cc1` the relative growth was inactive: 1.02.
In the case of `C[C@H](CO)N1C[C@H](C)[C@@H](CN(C)C(=O)NC2CCCCC2)Oc2ccc(NC(=O)Nc3cccc4ccccc34)cc2CC1=O`, the relative growth is reported as inactive: 0.935.
In the case of `Cc1noc(C)c1NC(=O)N(C)C[C@@H]1OCCCC[C@H](C)Oc2ccc(NS(=O)(=O)c3ccc(F)cc3)cc2C(=O)N([C@@H](C)CO)C[C@H]1C`, the relative growth is reported as inactive: 0.988.
For `C[C@@H]1CCCCO[C@@H](CN(C)S(=O)(=O)c2ccccc2)[C@@H](C)CN([C@H](C)CO)C(=O)c2cc(NC(=O)NC3CCCCC3)ccc2O1`, the relative growth was inactive: 0.994.
For `Nc1nc(=O)c2nc(Br)n([C@@H]3O[C@@H]4COP(=O)(O)O[C@H]4[C@H]3O)c2[nH]1`, the relative growth was inactive: 1.03.
`COc1ccc(NC(=O)Nc2ccc3c(c2)C(=O)N([C@@H](C)CO)C[C@@H](C)[C@H](CN(C)Cc2ccncc2)OCCCC[C@@H](C)O3)cc1` was tested, and the relative growth was inactive: 1.
In the case of `C[C@H](CO)N1C[C@H](C)[C@H](CN(C)S(=O)(=O)c2cccs2)OCCCC[C@H](C)Oc2ccc(NS(=O)(=O)c3ccc(Cl)cc3)cc2C1=O`, the relative growth is reported as inactive: 1.03.
For `C[C@H](CO)N1C[C@H](C)[C@H](CN(C)Cc2ccc(Oc3ccccc3)cc2)Oc2ccc(NS(=O)(=O)c3cccs3)cc2C1=O`, the relative growth was inactive: 1.
For `Nc1nc(=O)c2nc(CNc3ccc(C(=O)NC(CCC(=O)O)C(=O)O)cc3)cnc2[nH]1` (centres undefined), the relative growth was inactive: 0.996.
For `CN(C)CCN1[C@]2(CCN(C(=O)N3CCOCC3)C2)c2ccccc2S1(=O)=O`, the relative growth was inactive: 1.02.
For `C[C@H]1CN([C@@H](C)CO)C(=O)c2cc(-c3ccncc3)cnc2O[C@@H]1CN(C)Cc1ccc(Oc2ccccc2)cc1`, the relative growth was inactive: 1.01.
`C[C@H](CO)N1C[C@H](C)[C@@H](CN(C)S(=O)(=O)c2cn(C)cn2)Oc2ccc(NC(=O)Nc3ccc(F)cc3)cc2C1=O` was tested, and the relative growth was inactive: 1.02.
`COc1ccc(CN(C)C[C@@H]2OCCCC[C@H](C)Oc3ccc(NC(=O)Nc4ccccc4)cc3C(=O)N([C@H](C)CO)C[C@H]2C)cc1` was tested, and the relative growth was inactive: 0.987.
`CCCNC(=O)N1C[C@H](O)COC[C@@H]2O[C@H](CC(=O)NCCCN3CCOCC3)CC[C@H]21` was tested, and the relative growth was inactive: 1.
In the case of `O=C(C[C@H]1C[C@H]2c3cc(NC(=O)Cc4ccncc4)ccc3O[C@H]2[C@H](CO)O1)NCCN1CCCCC1`, the relative growth is reported as inactive: 1.02.
`C[C@H](CO)N1C[C@H](C)[C@H](CN(C)S(=O)(=O)c2cccs2)OCCCC[C@H](C)Oc2ccc(NC(=O)Nc3ccc4c(c3)OCO4)cc2C1=O` was tested, and the relative growth was inactive: 0.978.
With `O=C(O[C@H](Cc1ccc(O)c(O)c1)C(=O)O)[C@H]1[C@H](C(=O)O[C@@H](Cc2ccc(O)c(O)c2)C(=O)O)[C@H](c2ccc(O)c(O)c2)[C@@H]1c1ccc(O)c(O)c1` the relative growth was inactive: 1.01.
`CCOC(=O)c1cn2cn[nH]c2nc1=O` was tested, and the relative growth was inactive: 0.907.
